Test results: the supplement of paper PMC12217912
Some of the results follow. Sequences were assembled here from the parent chain. Values near 0.05 are background.

B1: TEV protease; numbered along this chain (parent)
chain: MGESLFKGPRDYNPISSSICHLTNESDGHTTSLYGIGFGPFIITNKHLFRRNNGTLVVQSLHGVFKVKDTTTLQQHLVDGRDMIIIRMPKDFPPFPQKLKFREPQREERICLVTTNFQTKSMSSMVSDTSCTFPSGDGIFWKHWIQTKDGQCGSPLVSTRDGFIVGIHSASNFTNTNNYFTSVPKNFMELLTNQEAQQWVSGWRLNADSVLWGGHKVFMVKPEEPFQPVKEATQL

Variants of: B1
Test: raw area under fraction-flipped curve 0-4 h after induction (AUC4h, not background-subtracted), DNA-recorder readout of cleavage of the substrate (dimensionless); higher = more cleavage of the substrate by the protease variant
Conditions: temperature: 34 °C; time window: 0-4 h after rhamnose induction
Method: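 In vivo DNA recorder in E. coli TOP10(DE3) ΔrhaA at 34 °C. Each TEVp single-site mutant (parent TEVp 0) is paired with a single-site variant of the 7-mer TEVs (canonical ENLYFQ|S). The substrate sits between flexible linkers in a Bxb1-sfGFP-TEVs-SsrA fusion, so cleavage stabilises Bxb1 and speeds flipping of a recombination array, read by NGS. The value is the raw area under the fraction-flipped curve over 0-4 h after rhamnose induction (AUC4h), with ≥20 reads per time point. It is not background-subtracted; inactive controls average about 0.047.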
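Note: Bxb1 expression induced with 0.2% (w/v) L-rhamnose at OD600 near 0.5, cultures sampled hourly, flipped fraction per protease–substrate barcode pair counted by paired-end Illumina sequencing.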

Row | Variant | area with substrate ENLYFAS | area with substrate ENLYFCS | area with substrate ENLYFDS | area with substrate ENLYFFS | area with substrate ENLYFIS | area with substrate ENLYFLS | area with substrate ENLYFPS | area with substrate ENLYFTS | area with substrate ENLYFVS | area with substrate ENLYFWS | area with substrate ENLYFYS | area with substrate ENLYFGS | area with substrate ENLYFHS | area with substrate ENLYFKS | area with substrate ENLYFMS | area with substrate ENLYFES | area with substrate ENLYFNS | area with substrate ENLYFSS | area with substrate ENLYFRS
1 | MGESLFKGPRDYNPISSSICHLTNESDGHTTSLYGIGFGPFIITNKHLFRRNNGTLVVQSLHGVFKVKDTTTLQQHLVDGRDMIIIRMPKDFPPFPQKLKFREPQREERICLVTTNFQTKSMSSMVSDTSCTFPSGDGSFWKHWIQTKDGQCGSPLVSTRDGFIVGIHSASNFTNTNNYFTSVPKNFMELLTNQEAQQWVSGWRLNADSVLWGGHKVFMVKPEEPFQPVKEATQL [I139S] | 0.065 | 0.0585 | 0.0543 | 0.0641 | 0.0554 | 0.0864 | 0.0518 | 0.0551 | 0.0642 | 0.0568 | 0.0665 |  |  |  |  |  |  |  | 
2 | MGESLFKGPRDYNPISSSICHLTNESDGHTTSLYGIGFGPFIITNKHLFRRNNGTLVVQSLHGVFKVKDTTTLQQHLVDGRDMIIIRMPKDFPPFPQKLKFREPQREERICLVTTNFQTKSMSSMVSDTSCTFPSGDGGFWKHWIQTKDGQCGSPLVSTRDGFIVGIHSASNFTNTNNYFTSVPKNFMELLTNQEAQQWVSGWRLNADSVLWGGHKVFMVKPEEPFQPVKEATQL [I139G] | 0.0692 | 0.0636 |  | 0.0771 | 0.0589 | 0.0592 | 0.0498 |  | 0.0639 |  |  | 0.0374 | 0.066 | 0.041 | 0.0596 |  |  |  | 
3 | MGESLFKGPRDYNPISSSICHLTNESDGHTTSLYGIGFGPFIITNKHLFRRNNGTLVVQSLHGVFKVKDTTTLQQHLVDGRDMIIIRMPKDFPPFPQKLKFREPQREERICLVTTNFQTKSMSSMVSDTSCTFPSGDGIFWEHWIQTKDGQCGSPLVSTRDGFIVGIHSASNFTNTNNYFTSVPKNFMELLTNQEAQQWVSGWRLNADSVLWGGHKVFMVKPEEPFQPVKEATQL [K142E] | 0.0652 | 0.0444 | 0.06 | 0.0513 | 0.0552 | 0.0245 | 0.0625 | 0.0755 | 0.0619 | 0.0593 | 0.0673 |  | 0.0695 | 0.0682 | 0.0653 | 0.0619 | 0.106 | 0.0537 | 
4 | MGESLFKGPRDYNPISSSICHLTNESDGHTTSLYGIGFGPFIITNKHLFRRNNGTLVVQSLHGVFKVKDTTTLQQHLVDGRDMIIIRMPKDFPPFPQKLKFREPQREERICLVTTNFQTKSMSSMVSDTSCTFPSGDGIKWKHWIQTKDGQCGSPLVSTRDGFIVGIHSASNFTNTNNYFTSVPKNFMELLTNQEAQQWVSGWRLNADSVLWGGHKVFMVKPEEPFQPVKEATQL [F140K] | 0.0557 | 0.0762 |  | 0.0539 | 0.0631 | 0.0816 | 0.0717 | 0.0859 |  |  | 0.0537 |  |  | 0.0585 | 0.0551 | 0.0332 | 0.0501 |  | 0.0589
5 | MGESLFKGPRDYNPISSSICHLTNESDGHTTSLYGIGFGPFIITNKHLFRRNNGTLVVQSLHGVFKVKDTTTLQQHLVDGRDMIIIRMPKDFPPFPQKLKFREPQREERICLVTTNFQTKSMSSMVDDTSCTFPSGDGIFWKHWIQTKDGQCGSPLVSTRDGFIVGIHSASNFTNTNNYFTSVPKNFMELLTNQEAQQWVSGWRLNADSVLWGGHKVFMVKPEEPFQPVKEATQL [S127D] | 0.0491 |  | 0.053 | 0.0203 | 0.0616 | 0.0768 | 0.0629 | 0.0726 | 0.0469 | 0.0608 |  |  |  |  | 0.0694 | 0.0667 | 0.0574 | 0.061 | 
6 | MGESLFKGPRDYNPISSSICHLTNESDGHTTSLYGIGFGPFIITNKHLFRRNNGTLVVQSLHGVFKVKDTTTLQQHLVDGRDMIIIRMPKDFPPFPQKLKFREPQREERICLVTTNFQTKSMSSMVPDTSCTFPSGDGIFWKHWIQTKDGQCGSPLVSTRDGFIVGIHSASNFTNTNNYFTSVPKNFMELLTNQEAQQWVSGWRLNADSVLWGGHKVFMVKPEEPFQPVKEATQL [S127P] | 0.0592 |  |  | 0.0645 | 0.0542 | 0.0132 | 0.057 | 0.0494 | 0.0552 | 0.0595 | 0.0511 |  | 0.0588 |  | 0.0691 | 0.0772 |  |  | 
7 | MGESLFKGPRDYNPISSSICHLTNESDGHTTSLYGIGFGPFIITNKHLFRRNNGTLVVQSLHGVFKVKDTTTLQQHLVDGRDMIIIRMPKDFPPFPQKLKFREPQREERICLVTTNFQTKSMSSMVSDQSCTFPSGDGIFWKHWIQTKDGQCGSPLVSTRDGFIVGIHSASNFTNTNNYFTSVPKNFMELLTNQEAQQWVSGWRLNADSVLWGGHKVFMVKPEEPFQPVKEATQL [T129Q] | 0.0312 |  |  | 0.0682 | 0.0588 | 0.0437 | 0.0604 |  | 0.0621 | 0.0616 | 0.04 |  | 0.0414 | 0.0701 | 0.0734 |  | 0.0766 |  | 
8 | MGESLFKGPRDYNPISSSICHLTNESDGHTTSLYGIGFGPFIITNKHLFRRNNGTLVVQSLHGVFKVKDTTTLQQHLVDGRDMIIIRMPKDFPPFPQKLKFREPQREERICLVTTNFQTKSMSSMVSDWSCTFPSGDGIFWKHWIQTKDGQCGSPLVSTRDGFIVGIHSASNFTNTNNYFTSVPKNFMELLTNQEAQQWVSGWRLNADSVLWGGHKVFMVKPEEPFQPVKEATQL [T129W] | 0.0381 | 0.0581 |  | 0.0833 | 0.056 | 0.0586 | 0.0574 | 0.0795 |  | 0.0567 | 0.0585 | 0.0656 | 0.0516 | 0.0628 | 0.0631 | 0.0569 | 0.0717 |  | 0.065
9 | MGESLFKGPRDYNPISSSICHLTNESDGHTTSLYGIGFGPFIITNKHLFRRNNGTLVVQSLHGVFKVKDTTTLQQHLVDGRDMIIIRMPKDFPPFPQKLKFREPQREERICLVTTNFQTKSMSSMVSDISCTFPSGDGIFWKHWIQTKDGQCGSPLVSTRDGFIVGIHSASNFTNTNNYFTSVPKNFMELLTNQEAQQWVSGWRLNADSVLWGGHKVFMVKPEEPFQPVKEATQL [T129I] | 0.0531 |  | 0.0605 | 0.027 | 0.0549 | 0.0797 |  |  | 0.0611 |  | 0.0397 | 0.0773 |  | 0.0534 | 0.07 | 0.0688 |  |  | 0.0681
